± gives the standard deviation of the averaged measurements. The list shows a part of the results.

The subject of this test is PfAP2-G AP2 domain (GST-tagged). Kind of test: gcPBM binding intensity (ln(normalized median fluorescence intensity)); higher = stronger DNA binding. Put shortly:
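Each value is the highest Masliner-normalised natural-log median intensity across replicate spots of either orientation of a probe. The probes were primer-extended double-stranded 36-bp intergenic genomic sequences on an Agilent 4 × 180k array, alongside negative controls, exposed for 1 h to GST-tagged P. falciparum DNA-binding domains expressed in E. coli. Bound protein was picked up with Alexa488 anti-GST antibody and scanned at 488 nm.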
On to “ATATATATATATATATGTACTTATGTCATCATTAAA [XGTACX_site5316]”, for which the “gcPBM binding intensity (ln)” value worked out at 11.2 ± 0.9.
For TATATGTATGTTTGTGTGCACACATAAATATTATAT the value was 10.6 ± 0.36; for “TATATATATAAAAAAAGTACGTATTTAATAAAAATA [XGTACX_site4992]”, 11.5 ± 0.72; for “GATATTATGTGTTTGGTATTTCGATCTTGTCAGGAC [CACACA_negctrl_site426]”, 10.2 ± 0.12.
In the case of “ATTTCTATATATTGTGCATGCCATTACACCAAATAT [TGCATGCA_site813]”, the “gcPBM binding intensity (ln)” value amounted to 10.3 ± 0.16.
For “TATATATATAAATACACACACACATATATATATATA [CACACA_site4585]” the value was 10.2 ± 0.28; for “TGTAGTTTTTATTTATGTACGCATAACATAATTTAA [XGTACX_site104]”, 11.6 ± 0.7; for “TCATTTTACAGATGTGCATGTGAATCAATCTATTTA [TGCATGCA_site787]”, 9.74 ± 0.16.
For “AATATACAAATTACAAGTACAAATCAATATTATATG [XGTACX_site7521]” the value was 11 ± 0.58; for “AAAAAAAAAAAAAAAACACACAAACAAATGAATAAA [CACACA_site5769]”, 10.1 ± 0.35.
Next, “GTATATAATTTATATTGTACGCATATTATTATCATT [XGTACX_site7277]”: 11.5 ± 1.
Regarding “TATATAAATAAAAAAAGTACATTACTTTTTAATTTA [XGTACX_site285]”, the “gcPBM binding intensity (ln)” value stood at 11.3 ± 0.86.
Next, “ATCATACCTTTTAATGTACACACATTTCTTTTTTGT [CACACA_site8198]”: 11.3 ± 0.6; “CATACCCATAAACACACACACATATATACCTATATA [CACACA_site4745]”: 9.99 ± 0.11; “AGAAAGGATATTATATGTACATATCTTTGTATTTTT [XGTACX_site5040]”: 11.1 ± 0.54.
As to “TAGTATGATAACTTGGGTACATAAATATGGAGTATC [XGTACX_site1296]”, the “gcPBM binding intensity (ln)” value worked out at 11.3 ± 0.74.
Next, “TTTTTAATTCAAAAAACTGTATGTTATATGTCAAAT [CACACA_negctrl_site72]”: 10 ± 0.15; TTCATTTTATTTTAAGTGCATATTTTTATTTTTTTG: 9.92 ± 0.11.
“AATTTAATATTCATCTCTAAAGCTATAACAATTACT [CACACA_negctrl_site1079]”: the “gcPBM binding intensity (ln)” value came out at 9.76 ± 0.16.
Consider “TCCTTAAAATATGGTTGTACGTACATCCTAGGTGTT [XGTACX_site7068]”, for which the “gcPBM binding intensity (ln)” value was 11.7 ± 0.97.
Next, “TTTTATCAATAAATTCGTACACATGAACTAGAGAGT [XGTACX_site5758]”: 11.4 ± 0.84; “TACATTCTAATAATTGCACACTGGTTATTAAAAGGA [CACACA_site1614]”: 10 ± 0.11; “TTTTTATTTATATTTCATTGAAGTTAAATTATTTTA [XGTACX_negctrl_site575]”: 9.66 ± 0.11.
As for “ATTAGTATATTTCTCTGTACTTACATTAAAATATAA [XGTACX_site2217]”, the “gcPBM binding intensity (ln)” value came to 11.4 ± 0.95.
For “AAATTATTTCAAATGTTGCACTAAAAATAAAATTAT [GTGCAC_site9460]” the value was 9.915 ± 0.078.
